Some of the results follow. Binding of human transcription factors and regulators to the viral nucleoprotein by AlphaScreen, crude cell-free proteins, amounts not normalised, one pass. Fold of the Venus control; higher = more signal. No active / inactive call. Single-pass screen; sequences are the whole Swiss-Prot entries looked up by name.
B1: PATZ1, Q9HBE1 (protein)
chain: MERVNDASCGPSGCYTYQVSRHSTEMLHNLNQQRKNGGRFCDVLLRVGDESFPAHRAVLAACSEYFESVFSAQLGDGGAADGGPADVGGATAAPGGGAGGSRELEMHTISSKVFGDILDFAYTSRIVVRLESFPELMTAAKFLLMRSVIEICQEVIKQSNVQILVPPARADIMLFRPPGTSDLGFPLDMTNGAALAANSNGIAGSMQPEEEAARAAGAAIAGQASLPVLPGVDRLPMVAGPLSPQLLTSPFPSVASSAPPLTGKRGRGRPRKANLLDSMFGSPGGLREAGILPCGLCGKVFTDANRLRQHEAQHGVTSLQLGYIDLPPPRLGENGLPISEDPDGPRKRSRTRKQVACEICGKIFRDVYHLNRHKLSHSGEKPYSCPVCGLRFKRKDRMSYHVRSHDGSVGKPYICQSCGKGFSRPDHLNGHIKQVHTSERPHKCQTCNASFATRDRLRSHLACHEDKVPCQVCGKYLRAAYMADHLKKHSEGPSNFCSICNRGFSSASYLKVHVKTHHGVPLPQVSRHQEPILNGGAAFHCARTYGNKEGQKCSHQDPIESSDSYGDLSDASDLKTPEKQSANGSFSCDMAVPKNKMESDGEKKYPCPECGSFFRSKSYLNKHIQKVHVRALGGPLGDLGPALGSPFSPQQNMSLLESFGFQIVQSAFASSLVDPEVDQQPMGPEGK
B2: XBP1, P17861 (protein)
chain: MVVVAAAPNPADGTPKVLLLSGQPASAAGAPAGQALPLMVPAQRGASPEAASGGLPQARKRQRLTHLSPEEKALRRKLKNRVAAQTARDRKKARMSELEQQVVDLEEENQKLLLENQLLREKTHGLVVENQELRQRLGMDALVAEEEAEAKGNEVRPVAGSAESAALRLRAPLQQVQAQLSPLQNISPWILAVLTLQIQSLISCWAFWTTWTQSCSSNALPQSLPAWRSSQRSTQKDPVPYQPPFLCQWGRHQPSWKPLMN
B3: CRTC3, Q6UUV7 (protein)
chain: MAASPGSGSANPRKFSEKIALHTQRQAEETRAFEQLMTDLTLSRVQFQKLQQLRLTQYHGGSLPNVSQLRSSASEFQPSFHQADNVRGTRHHGLVERPSRNRFHPLHRRSGDKPGRQFDGSAFGANYSSQPLDESWPRQQPPWKDEKHPGFRLTSALNRTNSDSALHTSALSTKPQDPYGGGGQSAWPAPYMGFCDGENNGHGEVASFPGPLKEENLLNVPKPLPKQLWETKEIQSLSGRPRSCDVGGGNAFPHNGQNLGLSPFLGTLNTGGSLPDLTNLHYSTPLPASLDTTDHHFGSMSVGNSVNNIPAAMTHLGIRSSSGLQSSRSNPSIQATLNKTVLSSSLNNHPQTSVPNASALHPSLRLFSLSNPSLSTTNLSGPSRRRQPPVSPLTLSPGPEAHQGFSRQLSSTSPLAPYPTSQMVSSDRSQLSFLPTEAQAQVSPPPPYPAPQELTQPLLQQPRAPEAPAQQPQAASSLPQSDFQLLPAQGSSLTNFFPDVGFDQQSMRPGPAFPQQVPLVQQGSRELQDSFHLRPSPYSNCGSLPNTILPEDSSTSLFKDLNSALAGLPEVSLNVDTPFPLEEELQIEPLSLDGLNMLSDSSMGLLDPSVEETFRADRL
B4: RORA, P35398 (protein)
chain: MESAPAAPDPAASEPGSSGADAAAGSRETPLNQESARKSEPPAPVRRQSYSSTSRGISVTKKTHTSQIEIIPCKICGDKSSGIHYGVITCEGCKGFFRRSQQSNATYSCPRQKNCLIDRTSRNRCQHCRLQKCLAVGMSRDAVKFGRMSKKQRDSLYAEVQKHRMQQQQRDHQQQPGEAEPLTPTYNISANGLTELHDDLSNYIDGHTPEGSKADSAVSSFYLDIQPSPDQSGLDINGIKPEPICDYTPASGFFPYCSFTNGETSPTVSMAELEHLAQNISKSHLETCQYLREELQQITWQTFLQEEIENYQNKQREVMWQLCAIKITEAIQYVVEFAKRIDGFMELCQNDQIVLLKAGSLEVVFIRMCRAFDSQNNTVYFDGKYASPDVFKSLGCEDFISFVFEFGKSLCSMHLTEDEIALFSAFVLMSADRSWLQEKVKIEKLQQKIQLALQHVLQKNHREDGILTKLICKVSTLRALCGRHTEKLMAFKAIYPDIVRLHFPPLYKELFTSEFEPAMQIDG
B5: MKX, Q8IYA7 (protein)
chain: MNTIVFNKLSGAVLFEDGGASERERGGRPYSGVLDSPHARPEVGIPDGPPLKDNLGLRHRRTGARQNGGKVRHKRQALQDMARPLKQWLYKHRDNPYPTKTEKILLALGSQMTLVQVSNWFANARRRLKNTVRQPDLSWALRIKLYNKYVQGNAERLSVSSDDSCSEDGENPPRTHMNEGGYNTPVHHPVIKSENSVIKAGVRPESRASEDYVAPPKYKSSLLNRYLNDSLRHVMATNTTMMGKTRQRNHSGSFSSNEFEEELVSPSSSETEGNFVYRTDTLENGSNKGESAANRKGPSKDDTYWKEINAAMALTNLAQGKDKLQGTTSCIIQKSSHIAEVKTVKVPLVQQF
B6: BTK, Q06187 (protein)
chain: MAAVILESIFLKRSQQKKKTSPLNFKKRLFLLTVHKLSYYEYDFERGRRGSKKGSIDVEKITCVETVVPEKNPPPERQIPRRGEESSEMEQISIIERFPYPFQVVYDEGPLYVFSPTEELRKRWIHQLKNVIRYNSDLVQKYHPCFWIDGQYLCCSQTAKNAMGCQILENRNGSLKPGSSHRKTKKPLPPTPEEDQILKKPLPPEPAAAPVSTSELKKVVALYDYMPMNANDLQLRKGDEYFILEESNLPWWRARDKNGQEGYIPSNYVTEAEDSIEMYEWYSKHMTRSQAEQLLKQEGKEGGFIVRDSSKAGKYTVSVFAKSTGDPQGVIRHYVVCSTPQSQYYLAEKHLFSTIPELINYHQHNSAGLISRLKYPVSQQNKNAPSTAGLGYGSWEIDPKDLTFLKELGTGQFGVVKYGKWRGQYDVAIKMIKEGSMSEDEFIEEAKVMMNLSHEKLVQLYGVCTKQRPIFIITEYMANGCLLNYLREMRHRFQTQQLLEMCKDVCEAMEYLESKQFLHRDLAARNCLVNDQGVVKVSDFGLSRYVLDDEYTSSVGSKFPVRWSPPEVLMYSKFSSKSDIWAFGVLMWEIYSLGKMPYERFTNSETAEHIAQGLRLYRPHLASEKVYTIMYSCWHEKADERPTFKILLSNILDVMDEES
B7: SCX, Q7RTU7 (protein)
chain: MSFATLRPAPPGRYLYPEVSPLSEDEDRGSDSSGSDEKPCRVHAARCGLQGARRRAGGRRAGGGGPGGRPGREPRQRHTANARERDRTNSVNTAFTALRTLIPTEPADRKLSKIETLRLASSYISHLGNVLLAGEACGDGQPCHSGPAFFHAARAGSPPPPPPPPPARDGENTQPKQICTFCLSNQRKLSKDRDRKTAIRS
B8: ZGLP1, P0C6A0 (protein)
chain: MEAEPIPDSSMPAKLLAPPCLNLERLGGSPSQEKPRTPGCCRISERSLWPACQESVTALCFLQETVERLGQSPAQDTPVLGPCWDPMALGTQGRLLLDRDSKDTQTRISQKGRRLQPPGTPSAPPQRRPRKQLNPCRGTERVDPGFEGVTLKFQIKPDSSLQIIPTYSLPCSSRSQESPADAVGGPAAHPGGTEAHSAGSEALEPRRCASCRTQRTPLWRDAEDGTPLCNACGIRYKKYGTRCSSCWLVPRKNVQPKRLCGRCGVSLDPIQEG
B9: FOXR2, Q6PJQ5 (protein)
chain: MDLKLKDCEFWYSLHGQVPGLLDWDMRNELFLPCTTDQCSLAEQILAKYRVGVMKPPEMPQKRRPSPDGDGPPCEPNLWMWVDPNILCPLGSQEAPKPSGKEDLTNISPFPQPPQKDEGSNCSEDKVVESLPSSSSEQSPLQKQGIHSPSDFELTEEEAEEPDDNSLQSPEMKCYQSQKLWQINNQEKSWQRPPLNCSHLIALALRNNPHCGLSVQEIYNFTRQHFPFFWTAPDGWKSTIHYNLCFLDSFEKVPDSLKDEDNARPRSCLWKLTKEGHRRFWEETRVLAFAQRERIQECMSQPELLTSLFDL
B10: ZHX3, Q9H4I2 (protein)
chain: MASKRKSTTPCMIPVKTVVLQDASMEAQPAETLPEGPQQDLPPEASAASSEAAQNPSSTDGSTLANGHRSTLDGYLYSCKYCDFRSHDMTQFVGHMNSEHTDFNKDPTFVCSGCSFLAKTPEGLSLHNATCHSGEASFVWNVAKPDNHVVVEQSIPESTSTPDLAGEPSAEGADGQAEIIITKTPIMKIMKGKAEAKKIHTLKENVPSQPVGEALPKLSTGEMEVREGDHSFINGAVPVSQASASSAKNPHAANGPLIGTVPVLPAGIAQFLSLQQQPPVHAQHHVHQPLPTAKALPKVMIPLSSIPTYNAAMDSNSFLKNSFHKFPYPTKAELCYLTVVTKYPEEQLKIWFTAQRLKQGISWSPEEIEDARKKMFNTVIQSVPQPTITVLNTPLVASAGNVQHLIQAALPGHVVGQPEGTGGGLLVTQPLMANGLQATSSPLPLTVTSVPKQPGVAPINTVCSNTTSAVKVVNAAQSLLTACPSITSQAFLDASIYKNKKSHEQLSALKGSFCRNQFPGQSEVEHLTKVTGLSTREVRKWFSDRRYHCRNLKGSRAMIPGDHSSIIIDSVPEVSFSPSSKVPEVTCIPTTATLATHPSAKRQSWHQTPDFTPTKYKERAPEQLRALESSFAQNPLPLDEELDRLRSETKMTRREIDSWFSERRKKVNAEETKKAEENASQEEEEAAEDEGGEEDLASELRVSGENGSLEMPSSHILAERKVSPIKINLKNLRVTEANGRNEIPGLGACDPEDDESNKLAEQLPGKVSCKKTAQQRHLLRQLFVQTQWPSNQDYDSIMAQTGLPRPEVVRWFGDSRYALKNGQLKWYEDYKRGNFPPGLLVIAPGNRELLQDYYMTHKMLYEEDLQNLCDKTQMSSQQVKQWFAEKMGEETRAVADTGSEDQGPGTGELTAVHKGMGDTYSEVSENSESWEPRVPEASSEPFDTSSPQAGRQLETD

These binders were tested against nucleoprotein N of Crimean-Congo hemorrhagic fever virus (assay: AlphaScreen luminescence signal relative to Venus negative control (fold); higher = stronger binding to CCHFV N).
Description: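 AlphaScreen binding of cell-free made, FLAG-GST-tagged human transcription factors and regulators (crude translation products) to biotinylated N protein; signal as fold of the FLAG-GST-Venus control. One pass.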
B1 was tested, and the AlphaScreen luminescence signal was 1.95. B2 showed an AlphaScreen luminescence signal of 3.67. B3 showed an AlphaScreen luminescence signal of 1.26. In the case of B4, the AlphaScreen luminescence signal is reported as 2.33. In the case of B5, the AlphaScreen luminescence signal is reported as 2.14. For B6, the AlphaScreen luminescence signal was 3.58. B7 showed an AlphaScreen luminescence signal of 2.84. B8 was tested, and the AlphaScreen luminescence signal was 1.72. In the case of B9, the AlphaScreen luminescence signal is reported as 2.14. B10 showed an AlphaScreen luminescence signal of 1.12.

Source: the supplement of paper PMC12423691
